{"source": "PubChem BioAssay AID686979", "about": "(National Center for Advancing Translational Sciences (NCATS), 2013)", "note": "“And” between values parts separate entries of the source, which are not always exact repeats. Equal entries are not always repeated. Screen size: about 420,000 compounds; about 50,000 (12%) were called active. Inconclusive means that the source gave no clear call. Such entries were picked first, then a sample of the others. Calls follow the shape of the dose curve; as a rule, active = well fitted inhibition curve with a large enough effect; inconclusive = small, poorly fitted or top-dose-only effect; inactive = flat fitted curve, though single readings scatter. A potency beside an inconclusive call is a rough fit, not a confirmed value. % is scaled to controls: 0 for no effect and ±100 for the full control effect; potency is read from the fitted curve at half-maximal effect; tags tell the direction and shape of the fitted curve."}
{"assay": "qHTS for Inhibitors of human tyrosyl-DNA phosphodiesterase 1 (TDP1): qHTS in cells in presence of CPT; also: nearly all actives have a fitted effect of over 55% in size", "conditions": "chicken DT40 Tdp1-/-;hTDP1 cells + 20 nM CPT, ATP luminescence, 48 h; activity change, negative = growth inhibition: at 46.2 µM (top of the series)", "method_in_brief": "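Chicken DT40 Tdp1-/- cells stably complemented with human TDP1 were seeded at 400 cells/well in medium containing 20 nM camptothecin, exposed to pin-transferred compounds, and grown at 37 °C for at least 48 hr. Viability was read as ATP luminescence.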"}
{"smiles": "Cc1ccc(Cc2c(C3CCCCC3)nc3cc(C)c(Br)c(C)n23)cc1", "Potency": "inconclusive: 11.6 µM [inhibitor, partial curve]"}
{"smiles": "COc1cccc(NC(=O)C2CCC(CNS(=O)(=O)c3ccc4c(c3)CC(C)N4C(C)=O)CC2)c1", "note": "(centres undefined)", "Potency": "active: 23.1 µM"}
{"smiles": "CCCCCC/C=C/c1ccc([C@H]2[C@H]3C=CC[C@@H](C)[C@@H]3C(=O)N2Cc2ccccc2)c(F)c1", "Potency": "inconclusive: 29.1 µM [inhibitor, single point]"}
{"smiles": "COc1ccccc1C(=O)NC(CCSC)C(=O)NC1CCCCCC1", "note": "(centres undefined)", "Potency": "inactive"}
{"smiles": "COc1ccc(S(=O)(=O)NCCc2cc3ccc(C)c(C)c3[nH]c2=O)cc1", "Potency": "active: 14.6 µM and active: 18.4 µM"}
{"smiles": "Nc1c(C(=O)OCC(=O)Nc2cccc([N+](=O)[O-])c2)[nH]c(=O)[nH]c1=O", "Potency": "inactive"}
{"smiles": "C=CCn1c(=O)c2ccccc2n2c(SCC(=O)Nc3sc(C(=O)N(CC)CC)c(C)c3C(=O)OCC)nnc12", "Potency": "active: 23.1 µM"}
{"smiles": "Cc1cccc(/C(N)=N/OC(=O)N2CCOCC2)c1", "Potency": "active: 16.4 µM"}
{"smiles": "COc1ccc(S(=O)(=O)N(Cc2cc3cc(C)ccc3[nH]c2=O)CC2CCCO2)cc1", "note": "(centres undefined)", "Potency": "inconclusive: 29.1 µM [inhibitor, single point]"}
{"smiles": "COc1ccc(Cn2c(CCC(=O)NCc3cccc(Cl)c3)nc3cccnc32)cc1", "Potency": "inconclusive: 16.4 µM [inhibitor, single point]"}
{"smiles": "CC(=O)c1ccc(OCC(=O)N2CCN(S(=O)(=O)c3ccc(Br)s3)CC2)cc1", "Potency": "inconclusive: 29.1 µM [inhibitor, single point]"}
{"smiles": "COc1cccc(OCc2cc(C(=O)N(C)Cc3nc(C)cs3)no2)c1", "Potency": "inconclusive: 25.9 µM [inhibitor, single point]"}
{"smiles": "O=S(=O)(CCN1CCN(c2ccccc2O)CC1)c1cc(Cl)ccc1Cl", "Potency": "inconclusive: 29.1 µM [inhibitor, single point]"}
{"smiles": "CCC(C)(C)n1nnnc1C(c1ccc(C)cc1)N1CCN(Cc2ccc3c(c2)OCO3)CC1", "note": "(centres undefined)", "Potency": "inactive"}
{"smiles": "NC(=O)CC(NC(=O)c1cccc(Br)c1)c1ccc(NC2CCCCCCC2)c([N+](=O)[O-])c1", "note": "(centres undefined)", "Potency": "inconclusive: 23.1 µM [inhibitor, single point]"}
{"smiles": "O=C(CCS(=O)(=O)c1ccccc1)Nc1nc(-c2ccc(F)cc2)cs1", "Potency": "inconclusive: 9.2 µM [inhibitor, partial curve, poor fit]"}
{"smiles": "CCc1ccc(OCC(=O)NNC(=S)NC(=O)C2CCCCC2)c(Br)c1", "Potency": "inconclusive: 29.1 µM [inhibitor, single point]"}
{"smiles": "CN(C)c1ccc(/C=C/C=C/c2ccnc3ccccc23)cc1", "Potency": "active: 1.78 µM"}
{"smiles": "Cc1ccc(NCc2nnc(SCC(=O)O)n2Cc2ccccc2)cc1Cl", "Potency": "inactive"}
{"smiles": "CCOC(=O)c1cc(S(=O)(=O)N2CCN(c3cccc(C)c3C)CC2)[nH]n1", "Potency": "inconclusive: 20.6 µM [inhibitor, single point]"}
{"smiles": "O=C(NCc1ccncc1)C1CCN(S(=O)(=O)c2ccc(Cl)c(C(F)(F)F)c2)CC1", "Potency": "inconclusive: 20.6 µM [inhibitor, single point]"}
{"smiles": "CC(C)(C)NC(=O)C(c1ccsc1)N(CCc1ccccc1)C(=O)Cn1nnc2ccccc21", "note": "(centres undefined)", "Potency": "inconclusive: 29.1 µM [inhibitor, partial curve]"}
{"smiles": "COc1ccc(CCNC(=O)c2ccc(Br)o2)cc1Br", "Potency": "active: 23.1 µM"}
{"smiles": "COc1cccc(CNC(=O)C2CCN(C(=O)c3cnn(-c4ccccc4)c3-n3cccc3)CC2)c1", "Potency": "inconclusive: 16.4 µM [inhibitor, single point]"}
{"smiles": "CC(C)(C)NC(=S)Nc1ccc(Br)cc1", "Potency": "inconclusive: 29.1 µM [inhibitor, single point]"}
{"smiles": "COc1ccc(-c2cc(C(C)=O)c(C)n2CCC(=O)NCc2ccc(C)cc2)cc1", "Potency": "inconclusive: 29.1 µM [inhibitor, single point]"}
{"smiles": "Cc1ccc(NC(=O)Nc2cn(CC(C)C)c(=O)c3ccccc23)cc1N(C)C", "Potency": "active: 20.6 µM"}
{"smiles": "CCN1C(=O)C(=CC=CN(C)c2ccccc2)SC1=S", "Potency": "inconclusive: 16.4 µM [inhibitor, partial curve]"}
{"smiles": "CCOC(=O)c1c(NC(=O)CCNCc2ccco2)sc2c1CCC2", "Potency": "inconclusive: 20.6 µM [inhibitor, single point]"}
{"smiles": "CN(C(=O)COC(=O)c1ccccc1C(=O)c1ccccc1)c1ccccc1", "Potency": "inconclusive: 29.1 µM [inhibitor, single point]"}
{"smiles": "CCc1cccc(CC)c1NC(=O)c1ccc(-n2cncn2)nc1", "Potency": "inactive"}
{"smiles": "Cn1c(SCc2ccccc2)nc(N)c(N=O)c1=O", "Potency": "inconclusive: 25.9 µM [inhibitor, single point]"}
{"smiles": "O=C(NCCc1csc(-c2cccnc2)n1)c1ccc(Br)o1", "Potency": "inconclusive: 23.1 µM [inhibitor, single point]"}
{"smiles": "Cc1ccc(-n2ncc(C(=O)NC3CCCCC3)c2C2CCN(C(=O)OC(C)(C)C)CC2)cc1", "Potency": "inconclusive: 29.1 µM [inhibitor, single point]"}
{"smiles": "O=C(COC(=O)c1cnccn1)Nc1cc(S(=O)(=O)N2CCOCC2)ccc1Cl", "Potency": "inactive"}
{"smiles": "COC(=O)c1ccc(C(=O)N2CCCCCC2(C)C(=O)NC(C)C)cc1", "note": "(centres undefined)", "activity change, negative = growth inhibition": "inconclusive: -31.9% [inhibitor]"}
{"smiles": "O=C(COC(=O)c1cc2c(s1)CCCC2)Nc1ccc(Cl)cn1", "Potency": "inactive"}
{"smiles": "CCCOc1ccc(C2=CSC3=NCCN23)cc1Cl", "Potency": "inconclusive: 29.1 µM [inhibitor, single point]"}
{"smiles": "COc1ccccc1OCC(=O)N1CCC(c2nc3ccccc3o2)CC1", "Potency": "inconclusive: 20.6 µM [inhibitor, single point]"}
{"smiles": "CCOC(=O)C1=CCN(S(=O)(=O)c2ccccc2C(=O)OC)C1c1ccc(Cl)cc1", "note": "(centres undefined)", "Potency": "active: 20.6 µM"}
{"smiles": "CN(CC(=O)Nc1cccnc1)S(=O)(=O)c1ccccc1", "Potency": "inactive"}
{"smiles": "C/C=C(/C)C(=O)OC(C)(C)[C@@H]1Cc2c(ccc3ccc(=O)oc23)O1", "Potency": "active: 18.4 µM"}
{"smiles": "O=C(Cc1ccc(F)cc1)Nc1cccc2cccnc12", "Potency": "inactive"}
{"smiles": "COc1ccc(-c2ccc(CN3C(C(C)C)C(=O)N(Cc4cn(Cc5ccco5)nn4)CCS3(=O)=O)cc2)cn1", "note": "(centres undefined)", "Potency": "active: 18.4 µM"}
{"smiles": "CCC1CCc2sc(C(=O)N(C)CC(=O)Nc3ccc(OC)cc3)cc2C1", "note": "(centres undefined)", "Potency": "inconclusive: 16.4 µM [inhibitor, single point]"}
{"smiles": "COC(=O)c1cccc(NC(=O)Nc2ccc(Cl)c(Cl)c2)c1", "Potency": "active: 18.4 µM"}
{"smiles": "CCCCCNc1nc2ccccc2nc1NS(=O)(=O)c1cccs1", "Potency": "inactive"}
{"smiles": "COc1ccc(N2CCN(S(=O)(=O)c3cnc[nH]3)CC2)cc1", "Potency": "inactive"}
{"smiles": "CSCCC(c1nnnn1C1CCCC1)N1CCN(C/C=C/c2ccccc2)CC1", "note": "(centres undefined)", "Potency": "inconclusive: 29.1 µM [inhibitor, single point]"}
{"smiles": "O=C(CCl)Nc1cn(-c2ccccc2)nc1-c1ccc(F)cc1", "Potency": "active: 4.61 µM"}
{"smiles": "CC(=O)[C@@]1(O)CC[C@H]2[C@@H]3CCC4=CC(=O)CC[C@]4(C)[C@H]3[C@@H](O)C[C@@]21C", "Potency": "inactive"}
{"smiles": "COc1ccc(C2c3cc4c(cc3OC(NNC(N)=O)C2C)OCO4)cc1", "note": "(centres undefined)", "Potency": "inconclusive: 29.1 µM [inhibitor, single point]"}
{"smiles": "O=C(Nc1cnn(Cc2ccc(F)cc2)c1)c1cc(-c2cccs2)on1", "Potency": "inconclusive: 20.6 µM [inhibitor, partial curve]"}
{"smiles": "CCCS(=O)(=O)c1ncc(Cl)c(C(=O)Nc2c(C(=O)Nc3ccccc3)oc3ccccc23)n1", "Potency": "active: 2.06 µM"}
{"smiles": "O=S(=O)(Nc1ccccc1N1CCCC1)c1ccccc1C(F)(F)F", "Potency": "active: 20.6 µM"}
{"smiles": "COc1ccc(-c2noc(CN(C)C(=O)CCCN3C(=O)[C@H]4CC=CC[C@H]4C3=O)n2)cc1", "Potency": "inconclusive: 29.1 µM [inhibitor, single point]"}
{"smiles": "Clc1ccccc1-c1nc2nc3ccccc3nc2n1-c1ccc2c(c1)OCO2", "Potency": "inconclusive: 18.4 µM [inhibitor, single point]"}
{"smiles": "Cc1ccc(NC(=O)c2c(C)oc3c2C2=NCCN2C=N3)cc1F", "Potency": "inconclusive: 25.9 µM [inhibitor, single point]"}
{"smiles": "CS(=O)(=O)N(CC(=O)NC1CCCC1)Cc1ccc(F)cc1", "Potency": "inactive"}
{"smiles": "COc1ccc(N(C)C(=O)c2cc3c(s2)-c2c(C)cccc2OC3)c(OC)c1", "Potency": "inconclusive: 29.1 µM [inhibitor, single point] and inconclusive: 18.4 µM [inhibitor, single point]"}
{"smiles": "CCc1nc(SCC(=O)N2CCN(C(=O)c3ccco3)CC2)c2c3c(sc2n1)CCCC3", "Potency": "inconclusive: 20.6 µM [inhibitor, single point]"}
{"smiles": "O=C(NCCO)c1cn(C2CCCN(Cc3cccc(C(F)(F)F)c3)C2)nn1", "note": "(centres undefined)", "activity change, negative = growth inhibition": "inactive: -6.64% [at 9.04 µM]"}
{"smiles": "CC(=O)NC(=S)Nc1sc2c(c1C#N)CCCCC2", "Potency": "inconclusive: 29.1 µM [inhibitor, single point]"}
{"smiles": "CCn1c(SCC(=O)c2ccc(Cl)s2)nnc1-c1cccs1", "Potency": "inactive"}
{"smiles": "Cc1ccc(C2NC(=O)NC(O)(C(F)(F)F)C2C(=O)c2ccccc2)o1", "note": "(centres undefined)", "activity change, negative = growth inhibition": "inconclusive: -30.7% [inhibitor]"}
{"smiles": "CCCN(C(=O)C1CCCN(c2ncnc3c2nc2n3CCCCC2)C1)c1ccc(F)cc1", "note": "(centres undefined)", "Potency": "active: 18.4 µM"}
{"smiles": "Cc1ccc(NS(=O)(=O)c2ccc(C(=O)NNC(=O)c3ccccc3O)cc2)cc1", "Potency": "inconclusive: 18.4 µM [inhibitor, single point]"}
{"smiles": "COc1ccc(CNc2nc3c(-c4cccc(F)c4)nnn3c3ccccc23)cc1", "Potency": "inconclusive: 29.1 µM [inhibitor, single point]"}
{"smiles": "Cc1cc(C)n(-c2cc(N3CCN(C(=O)c4cccc(Br)c4)CC3)ccc2[N+](=O)[O-])n1", "Potency": "inconclusive: 20.6 µM [inhibitor, single point]"}
